Test results published in PubChem BioAssay (NCATS).
Where “and” joins values, the source holds several entries; their conditions need not be identical. Equal entries are not always repeated. Inconclusive results, whose numbers are uncertain, are shown with a selection of clear calls. For some assays here: Where the call is inconclusive, the potency comes from a doubtful curve fit. Calls of active or inactive are those of the source. Unless noted, calls come from the whole dose curve; as a rule, active = well fitted curve in the direction sought with a large enough effect; inconclusive = small, poorly fitted or top-dose-only effect, or another doubt; inactive = no such curve, though single readings can be large; an effect the other way counts as inactive or inconclusive.

How the values were obtained:
[1] = biological target: Glucocorticoid receptor (Homo sapiens) (UniProt P04150); experiment: GR-GFP Redistribution (AID 450;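 active = compounds whose dose series gives a full or clear partial fitted curve of increased nuclear translocation; inconclusive = weak partial curve or effect only at the top dose; inactive = no dose-dependent translocation response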; note: potency is the fitted concentration of half-maximal effect); conditions: U2OS GR-GFP nuclear translocation, laser cytometry, 2 h
[2] = Quantitative High-Throughput drug screen in 47 multiple myeloma cell lines against the NCATS MIPE library collection: EJM_DSMZ cell viability assay (AID 1918926; note: potency is the fitted concentration of half-maximal effect; nearly all actives have a fitted effect of over 30% in size); conditions: EJM myeloma cell viability, CellTiter-Glo ATP, 48 h; series mostly up to 45.8 µM
Method in brief: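 CellTiter-Glo ATP luminescence gave viability after 48 h compound treatment at 37C of 500 multiple myeloma cells per well. Normalisation used DMSO-only wells as 100% and media-only wells as 0% viability; primary qHTS of approved and investigational drugs.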

[3] = Quantitative High-Throughput drug screen in 47 multiple myeloma cell lines against the NCATS MIPE library collection: INA6_PLB cell viability assay (AID 1918965; note: potency is the fitted concentration of half-maximal effect; nearly all actives have a fitted effect of over 55% in size); conditions: INA6 myeloma viability, CellTiter-Glo ATP luminescence, 48 h; series mostly up to 45.8 µM
Method in brief: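 CellTiter-Glo luminescence (ATP) after 48 h compound exposure, 37C/5% CO2; 500 cells/well; MIPE 4.0 approved/investigational drugs pinned in; DMSO = 100%, media only = 0% viability.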

[4] = Quantitative High-Throughput drug screen in 47 multiple myeloma cell lines against the NCATS MIPE library collection: OPM1_PLB cell viability assay (AID 1918989); conditions: CellTiter-Glo, 48 h; series mostly up to 45.8 µM; note: potency is the fitted concentration of half-maximal effect; nearly all actives have a fitted effect of over 40% in size
Method in brief: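 500 cells/well; MIPE 4.0 drugs pin-transferred; 48 h, 37C, 5% CO2. CellTiter-Glo, 5 min RT, luminescence. Controls: DMSO 100%, media 0%.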

[5] = Cell Viability - NIH 3T3 (AID 541); conditions: NIH 3T3 cell viability, qHTS; at 92.2 µM (top of the series);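 note: cells exposed to compound for 40 hours; plate controls were DMSO alone for no effect and tamoxifen positive control for full effect; nearly all actives have a fitted effect of over 25% in size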
Method in brief: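 qHTS format; 40 hr compound exposure, 37 °C; CellTiter-Glo luminescence (cellular ATP) read-out after 20 min at RT. Decrease in ATP = cytotoxicity; AC50 from standard Hill fit.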

[6] = Cell Viability - SH-SY5Y (AID 544); conditions: SH-SY5Y neuroblastoma cell viability; at 92.2 µM (top of the series);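 note: cells exposed to compound for 40 hours; 0% = DMSO alone and -100% = 100 µM tamoxifen; nearly all actives have a fitted effect of over 55% in size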
Method in brief: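 SH-SY5Y, 1500 cells/well, 5 hr pre-incubation 37 °C; cpd 40 hr 37 °C; CellTiter-Glo 20 min RT; luminescence (ATP) read. qHTS concentration-response, Hill fit → AC50. Tamoxifen, doxorubicin as positive controls.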

[7] = MultiTox-Fluor Cytotoxicity Assay - LYMP1-001 - Live Cells (AID 947); conditions: LYMP1-001 lymphoblastoid cells, live-cell protease fluorescence viability; note: potency is the fitted concentration of half-maximal effect
[8] = biological target: Glucocorticoid receptor (Homo sapiens) (UniProt P04150); experiment: qHTS assay for small molecule antagonists of glucocorticoid receptor signaling (AID 588533; active = well fitted inhibition curve with a large enough effect in the signal ratio, with a control signal flat, not every such curve was filed as active; inconclusive = small, poorly fitted or top-dose-only effect, or effect the other way, or a change in a side signal; the % refers to the signal ratio;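 note: cells stimulated with 2 nM dexamethasone as agonist; % is set by controls: 0 for no effect and ±100 for the full control effect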); conditions: HeLa MMTV-bla, GRE beta-lactamase ratio, antagonist mode, 18 h; activity change, negative = inhibition: at 76.8 µM (top of the series)
[9] = biological target: Vitamin D3 receptor (Homo sapiens) (UniProt P11473); experiment: qHTS assay for small molecule antagonists of vitamin D receptor signaling (AID 588541; calls by dose curve;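 note: receptor activated by calcitriol during compound treatment; % is set by controls: 0 for no effect and ±100 for the full control effect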); conditions: HEK293T VDR-UAS-bla, beta-lactamase ratio, antagonist mode; activity change, negative = inhibition: at 76.7 µM (top of the series)
[10] = biological target: Retinoic acid receptor RXR-alpha (Homo sapiens) (UniProt P19793); experiment: qHTS assay for small molecule agonists of retinoid X receptor alpha signaling (AID 588544; calls by dose curve;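 note: 0% = DMSO basal wells and 100% = reference agonist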); conditions: HEK293T RXRa-UAS-bla, beta-lactamase reporter, 18 h; activation: at 76.7 µM (top of the series)
[11] = biological target: Retinoic acid receptor RXR-alpha (Homo sapiens) (UniProt P19793); experiment: qHTS assay for small molecule antagonists of retinoid X receptor alpha signaling (AID 588546; active = well fitted inhibition curve with a large enough effect in the signal ratio, with a control signal flat, not every such curve was filed as active; inconclusive = small, poorly fitted or top-dose-only effect, or effect the other way, or a change in a side signal; inactive = no such curve, though single readings can be large or run the other way; the % refers to the signal ratio;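 note: cells stimulated with 9-cis-retinoic acid as agonist; % is set by controls: 0 for no effect and ±100 for the full control effect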); conditions: HEK293T RXRa-UAS-bla, beta-lactamase ratio, antagonist mode
Method in brief: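 Beta-lactamase reporter inhibition, read as CCF4 fluorescence ratio (ex 405, em 460/530 nm) after 2 h at RT. HEK293T UAS-bla cells, 2500/well, were stimulated with 9-cis-RA at 500 or 100 nM final alongside test compound for 18 h at 37 C.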

[12] = qHTS for differential inhibitors of proliferation of Plasmodium falciparum line D10 (AID 1877); conditions: series mostly up to 28.7 µM;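 note: potency is the fitted concentration of half-maximal effect; parasites grown with compound for 72 h before DNA staining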
[13] = biological target: Tyrosine-protein phosphatase non-receptor type substrate 1 (Homo sapiens) + Leukocyte surface antigen CD47 (Homo sapiens) (UniProt P78324+Q08722); experiment: CD47-SIRPalpha protein protein interaction - Alpha assay qHTS validation (AID 1347059); conditions: AlphaScreen CD47-His/biotin-SIRPalpha binding, LOPAC; series mostly up to 38.3 µM;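 note: bead proximity luminescence from CD47 binding SIRPalpha after compound preincubation with SIRPalpha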; note: potency is the fitted concentration of half-maximal effect
Method in brief: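 SIRPalpha-biotin 25 nM + cpd, 30 min RT, dark; add CD47-His 12.5 nM, 30 min; add Ni-NTA/SAV beads 10 ug/mL, 30 min; AlphaScreen. Buffer PBS pH 7.4 + 0.05% IGEPAL CA-630. Non-biotinylated SIRPalpha as control inhibitor.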

[14] = biological target: Calcium and integrin-binding protein 1 (Homo sapiens) (UniProt Q99828); experiment: Validation qHTS for Identification of Calcium Integrin Binding protein 1 (CIB1) Competitor (AID 1508618); conditions: CIB1-GST / FITC-alphaIIb peptide fluorescence polarization; series mostly up to 114 µM; note: potency is the fitted concentration of half-maximal effect; for activity change, negative = inhibition: % is set by controls: 0 for no effect and ±100 for the full control effect
Method in brief: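 CIB1-GST (1 uM final) in 5 mM HEPES pH 7.4, 125 mM NaCl, 5 mM CaCl2, 0.01% Tween20 was preincubated 15 min at room temperature with compound (up to 114 uM), then FITC-alphaIIb peptide (100 nM) added for 15 min; fluorescence polarization read.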

[15] = system: CP266; experiment: qHTS profiling for inhibitors of Plasmodium falciparum proliferation (AID 504749); note: potency is the fitted concentration of half-maximal effect; nearly all actives have a fitted effect of over 60% in size; conditions: P. falciparum in erythrocytes, SYBR Green DNA, 72 h; series mostly up to 28.7 µM
Method in brief: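 SYBR Green fluorescence (ex 485 nm, em 535 nm) reports parasite DNA after 72 h compound exposure of infected red cells at 0.3% parasitemia, 2.5% hematocrit; signal normalized to 0.29 uM artemisinin and vehicle wells.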

[16] = biological target: Endonuclease 4 (Escherichia coli (strain K12)) (UniProt P0A6C1); experiment: Counterscreen for APE1 Inhibitors: qHTS Validation Assay for Inhibitors of Endonuclease IV (AID 1708); note: potency is the fitted concentration of half-maximal effect; conditions: E. coli endonuclease IV, DNA cleavage fluorescence; series mostly up to 57.1 µM
Method in brief: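 Read-out: fluorescence rise (ex 525/em 598 nm) from incision of a TAMRA/BHQ-2 double-stranded THF abasic-site substrate (50 nM), measured kinetically; third-minus-first read difference gave reaction progress. Enzyme 2 nM.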

[17] = biological target: Ferritin light chain (Equus caballus) (UniProt P02791); experiment: qHTS Validation Assay for Identification of Novel General Anesthetics (AID 2323); conditions: horse apoferritin, anesthetic-site fluorescent probe displacement; series mostly up to 76.9 µM; note: potency is the fitted concentration of half-maximal effect
Method in brief: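 Competitive displacement of profluorescent 1-aminoanthracene (1-AMA, 50% saturated solution in PBS) from 10 uM horse-spleen apoferritin. Compounds incubated 10 min at room temperature; fluorescence read at 380 nm excitation/535 nm emission, normalized to free 1-AMA and complex, fitted with four-parameter Hill equation.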

[18] = biological target: ATP-dependent 6-phosphofructokinase (Trypanosoma brucei brucei) (UniProt O15648); experiment: qHTS Validation Assay to Find Inhibitors of T. brucei phosphofructokinase (AID 485368); note: potency is the fitted concentration of half-maximal effect; conditions: T. brucei PFK enzyme assay, qHTS 7-point titration; series mostly up to 57.5 µM
Method in brief: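 Inhibition derived from concentration-response curves of luminescence, ranked by r2, response size and curve class; the underlying reaction used 1.25 nM PFK, 0.1 mM ATP and 0.5 mM F6P, 45 min, room temperature.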

[19] = biological target: Chromobox protein homolog 1 (Homo sapiens) (UniProt P83916); experiment: qHTS Validation Assay for Inhibitors of HP1-beta Chromodomain Interactions with Methylated Histone Tails (AID 488953); conditions: HP1-beta chromodomain / methylated histone peptide binding assay; series mostly up to 114 µM; note: nearly all actives have a fitted effect of over 50% in size; note: potency is the fitted concentration of half-maximal effect
Method in brief: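 AlphaScreen proximity readout: streptavidin donor and Ni-chelate acceptor beads, 10 ug/mL final, 30 min dark, RT. Complex of 50 nM HP1-beta and 50 nM b-H3(1-18)K9me3 formed 30 min, then compound-treated 30 min; PBS pH 7.4/0.01% Tween-20.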

[20] = qHTS Assay for Identification of Small Molecule Agonists for Hypoxia Response Element Signaling Pathway (AID 914; active = well fitted activation curve with a large enough effect in the signal ratio, with a control signal flat, not every such curve was filed as active; inconclusive = small, poorly fitted or top-dose-only effect, or effect the other way, or a change in a side signal; the % refers to the signal ratio; note: top concentration of the series differs between compounds; % of control where 0% means no effect); conditions: ME-180 (cervical carcinoma) HRE-bla reporter, beta-lactamase ratio, CoCl2, 17 h; activation: stronger effect = higher value
Method in brief: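 AC50 values come from titration-series %Activity, taken as the 460/530nm ratio of CCF4 fluorescence (excitation 405nm). CellSensor HRE-bla ME-180 cells were treated 17 hours at 37 C with compound plus an EC50 level of CoCl2.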
Tags give direction and shape of the fitted curve.

Chain of UniProt P19793 (P19793 whole entry, looked up): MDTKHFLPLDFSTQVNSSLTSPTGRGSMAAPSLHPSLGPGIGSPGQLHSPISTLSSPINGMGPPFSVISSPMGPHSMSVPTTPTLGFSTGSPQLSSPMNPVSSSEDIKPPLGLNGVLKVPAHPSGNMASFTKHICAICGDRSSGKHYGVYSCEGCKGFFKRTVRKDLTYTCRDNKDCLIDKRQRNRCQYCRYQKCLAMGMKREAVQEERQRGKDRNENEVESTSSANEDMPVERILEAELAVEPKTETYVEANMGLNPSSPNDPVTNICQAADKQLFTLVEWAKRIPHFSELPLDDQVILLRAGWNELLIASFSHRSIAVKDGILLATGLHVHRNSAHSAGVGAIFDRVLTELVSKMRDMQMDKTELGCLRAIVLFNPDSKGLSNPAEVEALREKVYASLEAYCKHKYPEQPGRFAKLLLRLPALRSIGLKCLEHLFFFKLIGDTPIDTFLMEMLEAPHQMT
Chain of UniProt P83916 (P83916 whole entry, looked up): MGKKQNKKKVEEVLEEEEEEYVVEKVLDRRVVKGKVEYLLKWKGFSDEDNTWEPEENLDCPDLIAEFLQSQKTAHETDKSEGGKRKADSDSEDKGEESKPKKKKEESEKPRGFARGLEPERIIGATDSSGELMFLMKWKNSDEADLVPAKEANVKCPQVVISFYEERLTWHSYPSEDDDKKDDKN
Chain of UniProt O15648 (O15648 whole entry, looked up): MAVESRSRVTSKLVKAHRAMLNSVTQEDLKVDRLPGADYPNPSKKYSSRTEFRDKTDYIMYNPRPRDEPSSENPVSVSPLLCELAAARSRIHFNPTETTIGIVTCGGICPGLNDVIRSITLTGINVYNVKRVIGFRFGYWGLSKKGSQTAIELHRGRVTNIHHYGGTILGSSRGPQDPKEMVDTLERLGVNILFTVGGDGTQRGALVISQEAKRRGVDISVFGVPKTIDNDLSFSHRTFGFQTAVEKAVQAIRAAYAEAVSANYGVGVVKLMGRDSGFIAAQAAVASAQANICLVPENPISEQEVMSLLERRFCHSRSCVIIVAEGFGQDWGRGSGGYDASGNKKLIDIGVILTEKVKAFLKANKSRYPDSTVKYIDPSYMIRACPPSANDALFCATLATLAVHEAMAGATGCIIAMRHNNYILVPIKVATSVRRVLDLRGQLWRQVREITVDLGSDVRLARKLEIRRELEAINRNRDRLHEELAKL
Chain of UniProt P78324 (P78324 whole entry, looked up): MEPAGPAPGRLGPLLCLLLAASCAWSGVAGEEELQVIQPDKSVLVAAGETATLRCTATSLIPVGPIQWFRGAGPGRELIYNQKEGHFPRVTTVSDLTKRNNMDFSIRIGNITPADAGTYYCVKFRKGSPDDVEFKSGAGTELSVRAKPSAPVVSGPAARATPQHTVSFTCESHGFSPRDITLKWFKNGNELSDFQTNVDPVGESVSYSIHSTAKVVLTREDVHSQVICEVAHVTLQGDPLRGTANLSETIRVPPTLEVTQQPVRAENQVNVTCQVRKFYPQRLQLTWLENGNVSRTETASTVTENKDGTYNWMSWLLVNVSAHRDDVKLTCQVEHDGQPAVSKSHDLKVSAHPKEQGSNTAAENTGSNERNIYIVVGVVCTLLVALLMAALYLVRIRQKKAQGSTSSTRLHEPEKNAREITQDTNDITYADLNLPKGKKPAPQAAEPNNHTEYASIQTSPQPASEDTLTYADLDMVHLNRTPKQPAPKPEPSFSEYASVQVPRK
Chain of UniProt P78324 (Q08722 whole entry, looked up): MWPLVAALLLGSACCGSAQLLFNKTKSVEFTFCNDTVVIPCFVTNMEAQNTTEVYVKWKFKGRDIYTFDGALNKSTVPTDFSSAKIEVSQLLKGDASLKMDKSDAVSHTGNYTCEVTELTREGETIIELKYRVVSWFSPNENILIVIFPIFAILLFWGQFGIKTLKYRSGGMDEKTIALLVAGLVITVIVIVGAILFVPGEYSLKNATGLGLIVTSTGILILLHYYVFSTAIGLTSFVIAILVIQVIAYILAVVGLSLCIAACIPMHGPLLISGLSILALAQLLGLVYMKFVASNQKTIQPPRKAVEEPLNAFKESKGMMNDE
Chain of UniProt P02791 (P02791 whole entry, looked up): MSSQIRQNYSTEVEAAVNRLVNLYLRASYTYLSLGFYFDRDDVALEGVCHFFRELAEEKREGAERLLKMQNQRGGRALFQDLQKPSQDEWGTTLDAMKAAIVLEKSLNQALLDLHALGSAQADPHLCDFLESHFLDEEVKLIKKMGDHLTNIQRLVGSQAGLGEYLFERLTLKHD
Chain of UniProt Q99828 (Q99828 whole entry, looked up): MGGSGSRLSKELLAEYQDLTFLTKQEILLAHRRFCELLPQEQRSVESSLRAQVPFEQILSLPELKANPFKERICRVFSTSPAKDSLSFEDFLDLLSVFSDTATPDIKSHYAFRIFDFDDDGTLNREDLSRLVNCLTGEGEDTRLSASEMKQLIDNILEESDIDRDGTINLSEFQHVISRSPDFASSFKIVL

SMILES: CC(=O)[C@@]1(O)CC[C@H]2[C@@H]3C[C@H](C)C4=CC(=O)CC[C@]4(C)[C@H]3CC[C@@]21C
- Potency [1]: active: 0.00082 µM

SMILES: CC(=O)ON=C1C(c2c(O)[nH]c3cc(Br)ccc23)=Nc2ccccc21
- Potency [2]: active: 11.8 µM
- Potency [3]: active: 0.935 µM

SMILES: CCn1nnc2c(N3CCOCC3)nc(-c3ccc(NC(=O)Nc4ccc(C(=O)N5CCN(C)CC5)cc4)cc3)nc21
- Potency [4]: active: 0.0059 µM

SMILES: Nc1cccc2c(N)cccc12
- activity change, negative = cytotoxicity [5]: inconclusive: -43.4%
- viability change, negative = cytotoxic [6]: inconclusive: -67.8%
- Potency [7]: inconclusive: 20 µM [cytotoxic, partial curve, poor fit]
- activity change, negative = inhibition [8]: inconclusive: -16.2% and inconclusive: -4.66%
- activity change, negative = inhibition [9]: inconclusive: -45.6% and inconclusive: -63.6%
- activation [10]: inconclusive: -33.5%
- max response [11]: inactive: -3.27% and inactive: -4.14%

SMILES: CC(N=C(NC#N)Nc1ccncc1)C(C)(C)C (centres undefined)
- Potency [12]: inconclusive: 7.94 µM [inhibitor, partial curve]

SMILES: CCCCN(CCCC)CC(O)c1cc(Cl)cc2c1-c1ccc(Cl)cc1/C2=C/c1ccc(Cl)cc1 (centres undefined)
- Potency [13]: inconclusive: 7.36 µM [inhibitor, partial curve]
- Potency [14]: inactive
- Potency [15]: active: 0.135 µM

SMILES: O=C1NC(c2cccc([N+](=O)[O-])c2)=CCN1c1ccccc1O
- Potency [16]: inactive
- Potency [17]: inconclusive: 35.5 µM [inhibitor, partial curve]
- Potency [18]: inconclusive: 8.49 µM [activator, single point]
- Potency [19]: inactive
- Potency [13]: inactive
- Potency [14]: inconclusive: 50.1 µM [inhibitor, partial curve]

SMILES: CCCN(CCc1cccs1)[C@H]1CCc2c(O)cccc2C1
- Potency [15]: inconclusive: 13.5 µM [inhibitor, single point]

SMILES: COCCOC(=O)C1=C(C)NC(C)=C(C(=O)OC(C)C)C1c1cccc([N+](=O)[O-])c1 (centres undefined)
- activation [20]: inconclusive: -28.4%
- Potency [16]: inconclusive: 11.2 µM [inhibitor, partial curve]
- Potency [12]: active: 12.6 µM
- Potency [17]: inconclusive: 39.8 µM [inhibitor, partial curve]
- Potency [18]: inactive
- Potency [19]: inconclusive: 44.7 µM [inhibitor, partial curve]

SMILES: C[C@@H](CN(C)C)CN1c2ccccc2Sc2ccccc21
- activation [20]: inconclusive: -22.4%
